Some of the results follow. Values were computed here from the reads of four pooled replicates and scatter widely.
Molecular target: T1, Pho4 (S. cerevisiae) (UniProt P07270)
T1 sequence: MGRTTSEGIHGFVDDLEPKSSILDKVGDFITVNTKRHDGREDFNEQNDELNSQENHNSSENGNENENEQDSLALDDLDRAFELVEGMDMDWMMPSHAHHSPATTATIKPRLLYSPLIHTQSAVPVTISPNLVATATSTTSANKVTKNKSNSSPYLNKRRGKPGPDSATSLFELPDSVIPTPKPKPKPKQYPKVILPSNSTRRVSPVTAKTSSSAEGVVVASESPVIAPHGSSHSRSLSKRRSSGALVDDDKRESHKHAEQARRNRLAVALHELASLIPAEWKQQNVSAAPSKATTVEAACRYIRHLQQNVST
Assay: relative binding free energy (BET-seq); higher = weaker binding
Conditions: reference: library average

Sequence | relative binding free energy [kcal/mol]
TCTTTCACGTGAGGGT | 0.5
GTCTACACGTGGAGGT | 0.17
GGCGACACGTGAGATG | 0.41
GGTTCCACGTGCTATG | 0.22
TTAGCCACGTGAGGTT | 0.12
TTGTTCACGTGGCTTA | 0.11
GGTGGCACGTGCGCAG | -0.31
GGACACACGTGGATGG | 0.24
TTTTTCACGTGAGACT | 0.47
TGTCTCACGTGAGTGA | 0.21
GGGATCACGTGAGTGG | 0.3
AGATGCACGTGGGTTG | -0.09
CGGGGCACGTGCGGGC | -0.25
AGCATCACGTGAGGTG | 0.3
TAAATCACGTGATAAT | 0.32
TATGGCACGTGGAAGA | -0.02
TCGTTCACGTGTGTCG | 0.13
GGTTTCACGTGATACG | 0.42
GTGTGCACGTGATATA | 0.16
GAGTTCACGTGGGGGT | 0.25
TTGTACACGTGAGTGC | 0.25
ACGGGCACGTGGAGAG | -0.04
GGTGTCACGTGGGACA | -0.01
ATAGCCACGTGAGTGT | 0.02
ATGAGCACGTGTTGAT | -0.11

Sequence | relative binding free energy [kcal/mol]
CAAGGCACGTGTTTTA | 0.03
CAACTCACGTGGTGGG | 0.18
TTCTACACGTGTTGGT | 0.19
AGGGGCACGTGTCGCT | -0.25
ATTATCACGTGTTGCT | 0.24
GGTAACACGTGCTTGG | -0.02
ATTATCACGTGCTATG | 0.04
ATCGACACGTGTAGGT | 0.16
GTAAGCACGTGCTAGG | -0.13
CAGCTCACGTGGGGTT | 0.24
TGTAACACGTGTGTTT | 0.12
TTGATCACGTGGGTTT | 0.13
GTATGCACGTGAAGGG | 0.25
GGTCTCACGTGGTGAC | 0.45
TTGTGCACGTGTTTGC | -0.03
TTGGACACGTGAGTAC | 0.33
TAGTGCACGTGTAATA | 0.09
GTTTGCACGTGATTTT | 0.13
GGGATCACGTGGCGAT | 0.08
CGTGTCACGTGCGTTG | 0.03
ATTCTCACGTGTATTT | 0.23
TCCGGCACGTGGAAGG | 0.09
TTTTTCACGTGGTTAT | 0.29
TAAGGCACGTGGGTGG | -0.22
GGGCTCACGTGGGTAA | 0.08

Sequence | relative binding free energy [kcal/mol]
CAAGGCACGTGGGATG | -0.06
TTTGCCACGTGAGGGC | 0.15
TGAGGCACGTGTTACT | -0.15
TTTCGCACGTGAGTAT | 0.06
GGTTACACGTGGATGC | 0.17
GACGGCACGTGAGGGC | 0.13
CACAGCACGTGTGTGT | 0.02
ATCGACACGTGAGGGG | 0.12
TTATACACGTGAGTCT | 0.25
TCTTACACGTGTGTGC | 0.26
CGGCGCACGTGGTTGG | -0.13
TTATGCACGTGGGATG | -0.11
AGCGGCACGTGTTGAA | 0.01
GGTGGCACGTGGGACA | -0.22
AATGTCACGTGGATGT | 0.02
TGGGACACGTGCTGCG | -0.15
AGGTTCACGTGGAGGC | 0.27
GTTTACACGTGATGTA | 0.45
TTTCGCACGTGGCGAT | -0.07
AGTTACACGTGGCTAG | 0.02
AGTAGCACGTGACTGG | 0.02
AAGGTCACGTGGTAAC | 0.33
ACGTTCACGTGAGGAG | 0.24
CGGGACACGTGATCGG | 0.11
GGCGGCACGTGGATAG | -0.07

Sequence | relative binding free energy [kcal/mol]
TGGAGCACGTGCGCTT | -0.05
TGGGCCACGTGTCGGG | 0.03
TTAAGCACGTGGTAAT | -0.25
GTTGTCACGTGTTACC | 0.35
GGGTTCACGTGTAGAG | 0.36
TTGTACACGTGGGCCG | -0.11
TGTTGCACGTGATATT | 0.13
TGTGGCACGTGGAGTG | -0.07
TTATGCACGTGGAAGG | -0.03
GTAATCACGTGGCGTA | 0.16
TGGTTCACGTGGATAG | 0.34
TTTATCACGTGGATGT | 0.12
GTACACACGTGAGGGG | 0.18
TGAATCACGTGGTGCG | 0.1
TGTTTCACGTGTCTCT | 0.21
GTTGACACGTGAATTG | 0.36
GCTTGCACGTGCTTTG | 0.05
GCAGGCACGTGTTTGT | -0.07
ATTTTCACGTGCATTT | 0.21
TGTCCCACGTGTTGGA | -0.08
CTGGGCACGTGAATTT | 0.24
ATAGTCACGTGGTGGA | -0.12
CTTTTCACGTGGGGAC | 0.31
CGTTGCACGTGTGGCT | -0.07
AAGTACACGTGTTTTT | 0.15

Sequence | relative binding free energy [kcal/mol]
TTGTACACGTGATCGT | 0.03
TTGGCCACGTGGACGG | -0.12
TTGACCACGTGCGGGG | -0.08
TGGGACACGTGTAAAG | 0.08
GATAACACGTGTTGGT | 0.1
AGGGTCACGTGGGTTC | 0.11
AGTTCCACGTGGGATG | 0.15
GGGGTCACGTGGGCTA | -0.02
TGTAGCACGTGAAATG | 0.32
TTGAACACGTGGAGAG | 0.12
GATTGCACGTGTCTTG | 0.17
CGTGTCACGTGGTAAA | 0.03
TTGTACACGTGTTAGA | 0.11
TGGTTCACGTGAACTT | 0.33
TCGATCACGTGAGTTT | 0.33
TTGAACACGTGTAATT | 0.07
AGGATCACGTGTCGTA | 0.15
CGGCGCACGTGTTTGG | -0.06
TTGTCCACGTGTCGTT | 0.11
TTAATCACGTGCTTAG | 0.15
GCTTGCACGTGGGATG | -0.09
GTTAACACGTGGTTGC | -0.06
TTGCTCACGTGGCGGT | 0.23
GGATACACGTGCGTGG | 0.01
GGTGTCACGTGAAGGA | 0.41

Sequence | relative binding free energy [kcal/mol]
CAGTTCACGTGCAGGT | 0.35
AATGTCACGTGCGGAG | 0.03
TTGAGCACGTGCATGT | -0.12
GCTTACACGTGTTGGG | 0.09
TCGGACACGTGATGGT | 0.24
AGGTACACGTGGTTGG | 0
TGCGGCACGTGTAAGT | -0.11
TGTTCCACGTGAGTAT | 0.08
TTACGCACGTGGTATG | -0.25
TGAAACACGTGTGTTC | 0.05
TATTCCACGTGGGCGG | -0.1
GTTCGCACGTGGGTCT | -0.12
TATCGCACGTGGTTTG | -0.19
GCGGGCACGTGGAATA | 0.03
ACTGGCACGTGGGTGC | -0.19
GTTAGCACGTGCTTAT | -0.03
ACAGGCACGTGGGGTA | -0.34
ACGGTCACGTGCGGCG | 0.11
GCGCTCACGTGGGTTT | 0.06
ATGGGCACGTGTATTG | -0.04
TTGAGCACGTGTGTTA | -0.06
